# According to the supplement of paper PMC10369915:
# This is one part of the list. Rule as the data show it: active = 3.2 or more and inactive = the rest. Most of these values are background signal.
# Target: SHP2 C-SH2 domain E139D
# Test: enrichment score (SH2-bound / input frequency) (ratio); bacterial display of known human phosphotyrosine sites (pTyr-Var adds point mutants) read by sequencing; higher = stronger binding; tyrosines were phosphorylated by kinases first
# Details: peptide library: Human pTyr
# 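Also: displayed peptides selected on beads carrying the immobilized SH2 domain, with library peptides lacking any tyrosine serving as negative controls.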
row,Binder,enrichment score
1,MELQTARYHGHSMSD [PDHA1_HUMAN_289_YA],inactive: 0.64
2,EEEDEEEYFEEEEEE [PELP1_HUMAN_920],inactive: 1.37
3,NMVEDCLYETVKEIK [PHAG1_HUMAN_181],inactive: 1.41
4,SSNYMAPYDNYVPSA [PGFRB_HUMAN_775],inactive: 0.743
5,GAEISGNYTKGGPDF [NUDC2_HUMAN_145],inactive: 0.583
6,TDKSAEDYNSSNALN [PAK1_HUMAN_153],inactive: 0.651
7,GEGAKKKYQQVDEEF [PGFRB_HUMAN_970_YA],inactive: 1.02
8,AMAPADNYVPSAPER [PGFRB_HUMAN_778_YA],inactive: 0.66
9,YIGSTLSYFGLAAVF [P2RX7_HUMAN_343],inactive: 2.48
10,NYTTDFIYQLYSEEG [PFKAP_HUMAN_651],inactive: 1.82
11,GVRVRALYDADGQEQ [PACN1_HUMAN_394_YA],inactive: 1.07
12,SEDDEDCYGNADNLL [PDPK1_HUMAN_373_YA],inactive: 1.14
13,YMAPYDNYVPSAPER [PGFRB_HUMAN_778],inactive: 0.714
14,NENTEDQYSLVEDDE [P85A_HUMAN_607],inactive: 1.11
15,ADIESSNYMAPYDNY [PGFRB_HUMAN_771],inactive: 0.475
16,KVVDDEIYAFRKPIV [PB1_HUMAN_1289_YA],inactive: 0.946
17,ISPDGHEYIAVDPMQ [PGFRA_HUMAN_572_YA],inactive: 0.844
18,VQKFQVAYLGNVPVA [APBB1_HUMAN_547_YA],inactive: 1.18

# Target: SHP2 C-SH2 domain wild-type
# Test: as above
# Details: peptide library: Human pTyr
row,Binder,enrichment score
1,MELQTARYHGHSMSD [PDHA1_HUMAN_289_YA],inactive: 0.524
2,EEEDEEEYFEEEEEE [PELP1_HUMAN_920],inactive: 1.19
3,NMVEDCLYETVKEIK [PHAG1_HUMAN_181],inactive: 1.01
4,SSNYMAPYDNYVPSA [PGFRB_HUMAN_775],inactive: 0.502
5,GAEISGNYTKGGPDF [NUDC2_HUMAN_145],inactive: 0.58
6,TDKSAEDYNSSNALN [PAK1_HUMAN_153],inactive: 0.447
7,GEGAKKKYQQVDEEF [PGFRB_HUMAN_970_YA],inactive: 1.07
8,AMAPADNYVPSAPER [PGFRB_HUMAN_778_YA],inactive: 0.601
9,YIGSTLSYFGLAAVF [P2RX7_HUMAN_343],inactive: 2.54
10,NYTTDFIYQLYSEEG [PFKAP_HUMAN_651],inactive: 1.24
11,GVRVRALYDADGQEQ [PACN1_HUMAN_394_YA],inactive: 1.01
12,SEDDEDCYGNADNLL [PDPK1_HUMAN_373_YA],inactive: 0.975
13,YMAPYDNYVPSAPER [PGFRB_HUMAN_778],inactive: 0.601
14,NENTEDQYSLVEDDE [P85A_HUMAN_607],inactive: 1.09
15,ADIESSNYMAPYDNY [PGFRB_HUMAN_771],inactive: 0.426
16,KVVDDEIYAFRKPIV [PB1_HUMAN_1289_YA],inactive: 0.649
17,ISPDGHEYIAVDPMQ [PGFRA_HUMAN_572_YA],inactive: 0.59
18,VQKFQVAYLGNVPVA [APBB1_HUMAN_547_YA],inactive: 1.38

# Target: SHP2 N-SH2 domain L43F
# Test: as above
# Details: peptide library: Human pTyr
row,Binder,enrichment score
1,MELQTARYHGHSMSD [PDHA1_HUMAN_289_YA],inactive: 0.573
2,EEEDEEEYFEEEEEE [PELP1_HUMAN_920],inactive: 1.14
3,NMVEDCLYETVKEIK [PHAG1_HUMAN_181],inactive: 0.948
4,SSNYMAPYDNYVPSA [PGFRB_HUMAN_775],inactive: 0.583
5,GAEISGNYTKGGPDF [NUDC2_HUMAN_145],inactive: 0.554
6,TDKSAEDYNSSNALN [PAK1_HUMAN_153],inactive: 0.708
7,GEGAKKKYQQVDEEF [PGFRB_HUMAN_970_YA],inactive: 0.935
8,AMAPADNYVPSAPER [PGFRB_HUMAN_778_YA],inactive: 0.65
9,YIGSTLSYFGLAAVF [P2RX7_HUMAN_343],inactive: 2.21
10,NYTTDFIYQLYSEEG [PFKAP_HUMAN_651],inactive: 1.26
11,GVRVRALYDADGQEQ [PACN1_HUMAN_394_YA],inactive: 0.875
12,SEDDEDCYGNADNLL [PDPK1_HUMAN_373_YA],inactive: 0.927
13,YMAPYDNYVPSAPER [PGFRB_HUMAN_778],inactive: 0.561
14,NENTEDQYSLVEDDE [P85A_HUMAN_607],inactive: 0.891
15,ADIESSNYMAPYDNY [PGFRB_HUMAN_771],inactive: 0.502
16,KVVDDEIYAFRKPIV [PB1_HUMAN_1289_YA],inactive: 0.722
17,ISPDGHEYIAVDPMQ [PGFRA_HUMAN_572_YA],inactive: 0.591
18,VQKFQVAYLGNVPVA [APBB1_HUMAN_547_YA],inactive: 0.899

# Target: SHP2 N-SH2 domain T42A
# Test: as above
# Details: peptide library: Human pTyr
row,Binder,enrichment score
1,MELQTARYHGHSMSD [PDHA1_HUMAN_289_YA],inactive: 0.566
2,EEEDEEEYFEEEEEE [PELP1_HUMAN_920],inactive: 0.997
3,NMVEDCLYETVKEIK [PHAG1_HUMAN_181],inactive: 1.21
4,SSNYMAPYDNYVPSA [PGFRB_HUMAN_775],inactive: 0.592
5,GAEISGNYTKGGPDF [NUDC2_HUMAN_145],inactive: 0.566
6,TDKSAEDYNSSNALN [PAK1_HUMAN_153],inactive: 0.727
7,GEGAKKKYQQVDEEF [PGFRB_HUMAN_970_YA],inactive: 1.02
8,AMAPADNYVPSAPER [PGFRB_HUMAN_778_YA],inactive: 0.791
9,YIGSTLSYFGLAAVF [P2RX7_HUMAN_343],inactive: 2.28
10,NYTTDFIYQLYSEEG [PFKAP_HUMAN_651],inactive: 1.07
11,GVRVRALYDADGQEQ [PACN1_HUMAN_394_YA],inactive: 1.09
12,SEDDEDCYGNADNLL [PDPK1_HUMAN_373_YA],inactive: 1.01
13,YMAPYDNYVPSAPER [PGFRB_HUMAN_778],inactive: 0.693
14,NENTEDQYSLVEDDE [P85A_HUMAN_607],inactive: 0.936
15,ADIESSNYMAPYDNY [PGFRB_HUMAN_771],inactive: 0.507
16,KVVDDEIYAFRKPIV [PB1_HUMAN_1289_YA],inactive: 0.72
17,ISPDGHEYIAVDPMQ [PGFRA_HUMAN_572_YA],inactive: 0.694
18,VQKFQVAYLGNVPVA [APBB1_HUMAN_547_YA],inactive: 1

# Target: SHP2 N-SH2 domain T52S
# Test: as above
# Details: peptide library: Human pTyr
row,Binder,enrichment score
1,MELQTARYHGHSMSD [PDHA1_HUMAN_289_YA],inactive: 0.649
2,EEEDEEEYFEEEEEE [PELP1_HUMAN_920],inactive: 1.17
3,NMVEDCLYETVKEIK [PHAG1_HUMAN_181],inactive: 1.07
4,SSNYMAPYDNYVPSA [PGFRB_HUMAN_775],inactive: 0.519
5,GAEISGNYTKGGPDF [NUDC2_HUMAN_145],inactive: 0.49
6,TDKSAEDYNSSNALN [PAK1_HUMAN_153],inactive: 0.651
7,GEGAKKKYQQVDEEF [PGFRB_HUMAN_970_YA],inactive: 1.06
8,AMAPADNYVPSAPER [PGFRB_HUMAN_778_YA],inactive: 0.729
9,YIGSTLSYFGLAAVF [P2RX7_HUMAN_343],active: 3.76
10,NYTTDFIYQLYSEEG [PFKAP_HUMAN_651],inactive: 1.23
11,GVRVRALYDADGQEQ [PACN1_HUMAN_394_YA],inactive: 1.05
12,SEDDEDCYGNADNLL [PDPK1_HUMAN_373_YA],inactive: 0.996
13,YMAPYDNYVPSAPER [PGFRB_HUMAN_778],inactive: 0.708
14,NENTEDQYSLVEDDE [P85A_HUMAN_607],inactive: 1.28
15,ADIESSNYMAPYDNY [PGFRB_HUMAN_771],inactive: 0.488
16,KVVDDEIYAFRKPIV [PB1_HUMAN_1289_YA],inactive: 0.861
17,ISPDGHEYIAVDPMQ [PGFRA_HUMAN_572_YA],inactive: 0.522
18,VQKFQVAYLGNVPVA [APBB1_HUMAN_547_YA],inactive: 0.943

# Target: SHP2 N-SH2 domain wild-type
# Test: as above
# Details: peptide library: Human pTyr
row,Binder,enrichment score
1,MELQTARYHGHSMSD [PDHA1_HUMAN_289_YA],inactive: 0.624
2,EEEDEEEYFEEEEEE [PELP1_HUMAN_920],inactive: 1.73
3,NMVEDCLYETVKEIK [PHAG1_HUMAN_181],inactive: 1.61
4,SSNYMAPYDNYVPSA [PGFRB_HUMAN_775],inactive: 0.616
5,GAEISGNYTKGGPDF [NUDC2_HUMAN_145],inactive: 0.723
6,TDKSAEDYNSSNALN [PAK1_HUMAN_153],inactive: 0.601
7,GEGAKKKYQQVDEEF [PGFRB_HUMAN_970_YA],inactive: 1.46
8,AMAPADNYVPSAPER [PGFRB_HUMAN_778_YA],inactive: 0.69
9,YIGSTLSYFGLAAVF [P2RX7_HUMAN_343],inactive: 2.89
10,NYTTDFIYQLYSEEG [PFKAP_HUMAN_651],inactive: 1.39
11,GVRVRALYDADGQEQ [PACN1_HUMAN_394_YA],inactive: 1.09
12,SEDDEDCYGNADNLL [PDPK1_HUMAN_373_YA],inactive: 0.975
13,YMAPYDNYVPSAPER [PGFRB_HUMAN_778],inactive: 0.772
14,NENTEDQYSLVEDDE [P85A_HUMAN_607],inactive: 1.39
15,ADIESSNYMAPYDNY [PGFRB_HUMAN_771],inactive: 0.398
16,KVVDDEIYAFRKPIV [PB1_HUMAN_1289_YA],inactive: 0.733
17,ISPDGHEYIAVDPMQ [PGFRA_HUMAN_572_YA],inactive: 0.534
18,VQKFQVAYLGNVPVA [APBB1_HUMAN_547_YA],inactive: 1.06
